# Experimental data: the supplement of paper PMC8728848
# The list shows a part of the results.
# B1: Mg3lysM (Mycosphaerella graminicola) (protein)
# chain: APQNPPTSCSAAPQPTGTGSPGTVCGSTTFTNYTVKAGDTLGAIAKQYNSGVCDIAKVNGIDNPDYIKPDQVLSIPANCVTPDNTSCVKPVPVITNTCVLGVGSTYTVKSGDSFSAIATSFNITLASLEARNPQIPNYDLIFPGQVINTPLCPNSVCDSIGTYVIESGDIFYNLAQSNNVTVGQLESLNVNVNVTDIHPGDIIILPHNCHNITASA
# Columns and labels:
# Test in all cases: glycan array binding signal (z-score within array); higher = stronger binding
# Conditions in all cases: glycan notation: IUPAC condensed, linker removed
# [1] = biological target: Gal3S(b1-4)Glc
# In short: (§1)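 The binding signal is a Z-score computed within each array and averaged over linkers. Arrays of the same protein sequence at different concentrations or buffers were also averaged together. Data originate from 3228 arrays in the Consortium for Functional Glycomics database, kept only where the protein sequence was available.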
# [2] = biological target: Gal3S(b1-4)Glc6S
# In short: as §1
# [3] = biological target: Gal3S(b1-4)GlcNAc
# In short: as §1
# [4] = biological target: Gal3S(b1-4)[Fuc(a1-3)]Glc6S
# In short: as §1
# [5] = biological target: Gal3S(b1-4)[Fuc(a1-3)]GlcNAc
# In short: as §1
# [6] = biological target: Gal3S(b1-4)[Fuc(a1-3)]GlcNAc6S
# In short: as §1
# [7] = biological target: Gal3S4S(b1-4)GlcNAc
# In short: as §1
# [8] = biological target: Gal3S6S(b1-4)GlcNAc
# In short: as §1
# [9] = biological target: Gal3S6S(b1-4)GlcNAc6S
# In short: as §1
# [10] = biological target: Gal4S(b1-4)GlcNAc
# In short: as §1
# [11] = biological target: Gal4S6S(b1-4)GlcNAc
# In short: as §1
# [12] = biological target: Gal6P(b1-4)GlcNAc
# In short: as §1
# [13] = biological target: Gal6S(b1-3)GlcNAc
# In short: as §1
# [14] = biological target: Gal6S(b1-3)GlcNAc6S
# In short: as §1
# [15] = biological target: Gal6S(b1-4)Glc
# In short: as §1
# [16] = biological target: Gal6S(b1-4)Glc6S
# In short: as §1
# [17] = biological target: Gal6S(b1-4)GlcNAc
# In short: as §1
# [18] = biological target: Gal6S(b1-4)GlcNAc6S
# In short: as §1
# [19] = biological target: GalNAc(a1-3)Gal
# In short: as §1
# [20] = biological target: GalNAc(a1-3)GalNAc
# In short: as §1
# [21] = biological target: GalNAc(a1-3)GalNAc(b1-3)Gal(a1-4)Gal(b1-4)Glc
# In short: as §1
# [22] = biological target: GalNAc(a1-3)GalNAc(b1-3)Gal(a1-4)Gal(b1-4)GlcNAc
# In short: as §1
# [23] = biological target: GalNAc(b1-3)Gal
# In short: as §1
# [24] = biological target: GalNAc(b1-3)Gal(a1-4)Gal(b1-4)GlcNAc
# In short: as §1
# [25] = biological target: GalNAc(b1-3)Gal(a1-4)Gal(b1-4)GlcNAc(b1-3)Gal(b1-4)Glc
# In short: as §1
# [26] = biological target: GalNAc(b1-3)Gal(a1-6)Gal(b1-4)Glc
# In short: as §1
# [27] = biological target: GalNAc(b1-3)GalNAc
# In short: as §1
# [28] = biological target: GalNAc(b1-3)GlcNAc
# In short: as §1
# [29] = biological target: GalNAc(b1-4)Gal(b1-4)Glc
# In short: as §1
# [30] = biological target: GalNAc(b1-4)GlcNAc
# In short: as §1
# [31] = biological target: GalNAc(b1-4)GlcNAc(b1-2)Man
# In short: as §1
# [32] = biological target: GalNAc(b1-4)GlcNAc(b1-2)Man(a1-3)[GalNAc(b1-4)GlcNAc(b1-2)Man(a1-6)]Man(b1-4)GlcNAc(b1-4)GlcNAc
# In short: as §1
# [33] = biological target: GalNAc(b1-4)GlcNAc(b1-3)GalNAc(b1-4)GlcNAc
# In short: as §1
# [34] = biological target: GalNAc(b1-4)GlcNAc6S
# In short: as §1
# [35] = biological target: GalNAc(b1-6)GalNAc
# In short: as §1
# [36] = biological target: GalNAc3S(b1-4)GlcNAc
# In short: as §1
# [37] = biological target: GalNAc3S(b1-4)GlcNAc3S
# In short: as §1
# [38] = biological target: GalNAc3S(b1-4)[Fuc(a1-3)]GlcNAc
# In short: as §1
# [39] = biological target: GalNAc4S6S(b1-4)GlcNAc
# In short: as §1
# [40] = biological target: GalNAc6S(b1-4)GlcNAc
# In short: as §1
# [41] = biological target: Glc(a1-4)Glc
# In short: as §1
# [42] = biological target: Glc(a1-4)Glc(a1-4)Glc(a1-4)Glc
# In short: as §1
# [43] = biological target: Glc(a1-6)Glc(a1-6)Glc
# In short: as §1
# [44] = biological target: Glc(a1-6)Glc(a1-6)Glc(a1-6)Glc
# In short: as §1
# [45] = biological target: Glc(b1-4)Glc
# In short: as §1
binder,measurement,setting,value
B1,glycan array binding signal (z-score),[1],-0.053
same,glycan array binding signal (z-score),[2],-0.101
same,glycan array binding signal (z-score),[3],-0.031
same,glycan array binding signal (z-score),[4],0.053
same,glycan array binding signal (z-score),[5],0.046
same,glycan array binding signal (z-score),[6],-0.138
same,glycan array binding signal (z-score),[7],-0.086
same,glycan array binding signal (z-score),[8],-0.048
same,glycan array binding signal (z-score),[9],0.004
same,glycan array binding signal (z-score),[10],-0.073
same,glycan array binding signal (z-score),[11],-0.091
same,glycan array binding signal (z-score),[12],-0.143
same,glycan array binding signal (z-score),[13],-0.127
same,glycan array binding signal (z-score),[14],-0.179
same,glycan array binding signal (z-score),[15],-0.027
same,glycan array binding signal (z-score),[16],-0.066
same,glycan array binding signal (z-score),[17],-0.123
same,glycan array binding signal (z-score),[18],-0.082
same,glycan array binding signal (z-score),[19],-0.057
same,glycan array binding signal (z-score),[20],-0.14
same,glycan array binding signal (z-score),[21],-0.115
same,glycan array binding signal (z-score),[22],-0.132
same,glycan array binding signal (z-score),[23],-0.143
same,glycan array binding signal (z-score),[24],-0.285
same,glycan array binding signal (z-score),[25],-0.113
same,glycan array binding signal (z-score),[26],-0.127
same,glycan array binding signal (z-score),[27],-0.061
same,glycan array binding signal (z-score),[28],-0.164
same,glycan array binding signal (z-score),[29],-0.047
same,glycan array binding signal (z-score),[30],0.043
same,glycan array binding signal (z-score),[31],0.08
same,glycan array binding signal (z-score),[32],-0.148
same,glycan array binding signal (z-score),[33],-0.101
same,glycan array binding signal (z-score),[34],-0.006
same,glycan array binding signal (z-score),[35],-0.032
same,glycan array binding signal (z-score),[36],-0.021
same,glycan array binding signal (z-score),[37],-0.061
same,glycan array binding signal (z-score),[38],0.06
same,glycan array binding signal (z-score),[39],-0.136
same,glycan array binding signal (z-score),[40],-0.073
same,glycan array binding signal (z-score),[41],-0.03
same,glycan array binding signal (z-score),[42],-0.014
same,glycan array binding signal (z-score),[43],-0.018
same,glycan array binding signal (z-score),[44],-0.032
same,glycan array binding signal (z-score),[45],0.035
